# Laboratory results as given in PubChem BioAssay AID686978 (National Center for Advancing Translational Sciences (NCATS), 2013).
# Values joined by “and” are separate entries in the source; they are usually repeats but may differ in a detail not shown here. Identical values can stand only once. Out of some 420,000 compounds screened, about 64,000 (15%) were called active. Inconclusive means that the source gave no clear call. Such entries were picked first, then a sample of the others. Calls follow the shape of the dose curve; as a rule, active = well fitted inhibition curve with a large enough effect; inconclusive = small, poorly fitted or top-dose-only effect; inactive = flat fitted curve, though single readings scatter. A potency beside an inconclusive call is a rough fit, not a confirmed value.
# Experiment: qHTS for Inhibitors of human tyrosyl-DNA phosphodiesterase 1 (TDP1): qHTS in cells in absence of CPT; also: nearly all actives have a fitted effect of over 55% in size
# Conditions: DT40 Tdp1-/- hTDP1 cells, no CPT, ATP luminescence, 48 h; series mostly up to 46.2 µM
# Procedure, shortened: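 Readout: luminescence from CellTiter-Glo after 30 min in the dark at RT. Cells: DT40 Tdp1-/- with stable hTDP1, 400/well. Exposure: compounds alone, ≥48 hr, 37 °C.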
# Potency is read from the fitted curve at half-maximal effect; tags tell the direction and shape of the fitted curve.
row,SMILES,Potency
1,O=C(Cc1ccccc1)N(c1ccccc1)c1ccccc1,"inconclusive: 23.1 µM [inhibitor, single point]"
2,COc1ccccc1NS(=O)(=O)c1ccc(N/N=C/c2c(C)nn(-c3ccccc3)c2N2CCCC2)c([N+](=O)[O-])c1,active: 6.51 µM
3,O=C(CSc1nnc(-c2ccc(F)cc2)o1)N1CCCc2ccccc21,active: 18.4 µM
4,Cn1c(CN2CCN(c3ccc(Cl)cc3)CC2)nc2ccccc21,"inconclusive: 23.1 µM [inhibitor, single point]"
5,CC(=O)c1ccc(NC(=O)Nc2cccc(Cl)c2)cc1,"inconclusive: 23.1 µM [inhibitor, single point]"
6,Nc1ncnc2c1ncn2CCOCP(=O)(O)O,inactive
7,O=C(COC(=O)C1CCN(S(=O)(=O)c2ccc(Cl)c(C(F)(F)F)c2)CC1)NCC1CCCO1 (stereo not given),"inconclusive: 18.4 µM [inhibitor, single point]"
8,Cc1cc(C)c2nc(N3CCCN(C(=O)c4cnccn4)CC3)c(C#N)cc2c1,active: 16.4 µM
9,COc1cc(OC)c(C2CC(=O)N3CN(c4ccccc4)CSC3=C2C#N)cc1OC (stereo not given),inactive
10,O=C(CN1CCOCC1)Nc1c2c(nc3c1CCC3)CCC2,inactive
11,COC(=O)c1sccc1S(=O)(=O)N(CC(=O)NCc1ccc(C)cc1)c1ccc(C)cc1,"inconclusive: 23.1 µM [inhibitor, single point]"
12,Fc1ccc(-c2nc(Nc3cccc(C(F)(F)F)c3)nc3c2COc2ccccc2-3)cc1,"inconclusive: 29.1 µM [inhibitor, single point]"
13,CC(C)(C)C1CCc2sc(-c3nnc(CCl)o3)cc2C1 (stereo not given),"inconclusive: 29.1 µM [inhibitor, single point]"
14,O=C(COC(=O)c1cccnc1Nc1ccccc1F)NCc1ccc2c(c1)OCO2,inactive
15,O=C(CCC1N=C2c3ccccc3N=C(SCc3ccc(Cl)cc3)N2C1=O)N1CCN(c2ccccc2)CC1 (stereo not given),active: 20.6 µM
16,CCOC(=O)Cc1cn(C(=O)OC(C)(C)C)c2ccccc12,"inconclusive: 20.6 µM [inhibitor, single point]"
17,Cc1c(Cl)cccc1NC(=O)C(=O)NNS(=O)(=O)c1ccc(F)cc1,inactive
18,CN(c1ccc(OCC(=O)OCC(=O)c2c(N)n(C)c(=O)n(C)c2=O)cc1)S(=O)(=O)c1ccc2ccccc2c1,"inconclusive: 16.4 µM [inhibitor, single point]"
19,CCOc1ccc(NC(=O)NC(C)CC)cc1 (stereo not given),active: 18.4 µM
20,COc1ccc(C2C=C(c3ccc(Cl)c(Cl)c3)Nc3ncnn32)cc1 (stereo not given),"inconclusive: 16.4 µM [inhibitor, single point]"
21,Cc1ccc(C(=O)NC(=S)NCC2CCCO2)cc1[N+](=O)[O-] (stereo not given),"inconclusive: 16.4 µM [inhibitor, single point]"
22,CCn1nc(C)c(CN2Cc3ccccc3OC(c3ccccc3OC)C2)c1C (stereo not given),"inconclusive: 29.1 µM [inhibitor, single point]"
23,CCCS(=O)(=O)Nc1cccc(-c2ccc3nnc(C)n3n2)c1,"inconclusive: 25.9 µM [inhibitor, single point]"

row,SMILES,Potency
1,COc1ccc(N2CCN(CCCNC(=O)Nc3ccccc3)CC2)cc1,"inconclusive: 29.1 µM [inhibitor, single point] and inconclusive: 25.9 µM [inhibitor, single point]"
2,COc1ccc(S(=O)(=O)N(C)C)cc1NC(=O)c1ccc2c(c1)NC(=O)C(C)S2 (stereo not given),"inconclusive: 29.1 µM [inhibitor, single point]"
3,CC(=O)N/C(=C/c1ccccc1)C(=O)NCCO,inactive
4,O=C(Nc1ccccc1)C(Cc1cccs1)c1nn[nH]n1 (stereo not given),"inconclusive: 2.91 µM [inhibitor, partial curve]"
5,CCOC(=O)N1CCN(C(=O)CCN2C(=O)/C(=C\c3ccccc3OC)SC2=S)CC1,active: 23.1 µM
6,Cc1csc(NC(=O)c2sc3nc(-c4cccs4)ccc3c2N)n1,active: 25.1 µM
7,O=C(COc1ccc(-n2cnnn2)cc1)Nc1cc(Cl)cc(Cl)c1,"inconclusive: 7.31 µM [inhibitor, partial curve]"
8,Cc1ccc(C(=O)Nc2cccc(S(=O)(=O)N(C)c3ccccc3)c2)o1,"inconclusive: 29.1 µM [inhibitor, single point]"
9,O=C(Nc1ccc(O)cc1)c1ccc2c(c1)C(=O)N(Cc1ccco1)C2=O,inactive
10,O=C(c1ccc(COc2ccccc2[N+](=O)[O-])o1)N1CCCCCC1,"inconclusive: 29.1 µM [inhibitor, single point]"
11,Cc1cccc(C)c1NC(=O)CN(C)c1ccc(C(F)(F)F)cn1,"inconclusive: 23.1 µM [inhibitor, single point]"
12,CC(NC(=O)Cc1ccccc1)c1nc2ccccc2[nH]1 (stereo not given),inactive
13,Cc1nc2nc3c(c(=O)n2[nH]1)CCCC3,inactive
14,CS(=O)(=O)CCSc1ncccc1C(=O)NCc1cccs1,inactive
15,O=C(O)CCN1C(=O)c2ccc(NC(=O)c3cccs3)cc2C1=O,inactive
16,CCC(=O)Nc1ccc(S(=O)(=O)N2CCC(c3nc4ccccc4[nH]3)CC2)cc1,"inconclusive: 29.1 µM [inhibitor, single point]"
17,c1ccc(C[C@H]2CNCCN2CCC23CC4CC(CC(C4)C2)C3)cc1,active: 10.3 µM
18,CCOC(=O)C1=C(CN2CCN(c3cccc(Cl)c3)CC2)NC(=O)NC1c1ccc(Cl)cc1 (stereo not given),active: 20.6 µM
19,O=C(NCc1ccc(F)cc1)c1noc2c1CCCC2,"inconclusive: 0.398 µM [inhibitor, full curve, poor fit]"
20,CCn1cc(C(=O)NCc2ccc(Cl)cc2)c(=O)c2cc(S(=O)(=O)N(C)C3CCCCC3)ccc21,"inconclusive: 29.1 µM [inhibitor, single point]"
21,CCc1ccc(S(=O)(=O)Nc2ccc(-c3nc4cccnc4s3)cc2)s1,"inconclusive: 20.6 µM [inhibitor, single point]"
22,COc1ccc(CCNCC(O)COc2cccc(Br)c2)cc1OC (stereo not given),"inconclusive: 29.1 µM [inhibitor, single point]"
